From PubChem BioAssay AID1347120 (National Center for Advancing Translational Sciences (NCATS), 2019)
Among all 390,000 compounds or so, about 930 (0.24%) were called active. Inconclusive results, whose numbers are uncertain, are shown with a selection of clear calls. The call rests on the fitted dose curve; in most records, active means well fitted activation curve with a large enough effect; inconclusive means small, poorly fitted or top-dose-only effect; inactive means no such curve, though single readings can be large or run the other way. Potencies beside an inconclusive call are fits to weak or partial responses and may not hold up.
Potency means the concentration at half of the fitted maximal effect; tags describe the fitted curve by direction and shape.

Test: qHTS for Suppressors of FUS Proteinopathy: Primary screen using FUS-linked yeast assay; further: nearly all actives have a fitted effect of over 55% in size;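 on growth rescue (activation): plate controls were DMSO vehicle for no effect and reference control for full effect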
Conditions: S. cerevisiae FUS-expressing, OD600, 24 h; Potency: growth rescue; growth rescue (activation): at 76.6 µM (top of the series)
How it was run: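 Yeast expressing FUS under galactose induction, OD 0.005 in 2% galactose medium; compounds in a dilution series, 24 h at 30C. Growth rescue by absorbance at 600 nm; CP55940 positive control, DMSO negative.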
In the case of `CCOc1ccc(-n2c(SCC(=O)N3CCCCCC3)nc3c([nH]c4ccccc43)c2=O)cc1`, the “growth rescue (activation)” value is reported as inactive: -4.8%.
With `CC(C)Cn1c(N)c(C(=O)COC(=O)c2ccc3ccccc3n2)c(=O)n(C)c1=O` the Potency was inconclusive: 14.1 µM [activator, partial curve].
For `CCN(C(=O)COC(=O)c1cc(-c2cccs2)nc2ccccc12)C1CCS(=O)(=O)C1` (centres undefined), the Potency was inconclusive: 35.5 µM [activator, single point].
In the case of `C/C(=N\O)c1c(O)cc(-c2ccccc2)n(-c2ccccc2)c1=O`, the Potency is reported as inconclusive: 17.8 µM [activator, partial curve, poor fit].
For `CCc1ccc(NC(=S)Nc2cccc(OC)c2)cc1`, the Potency was inconclusive: 50.1 µM [activator, single point].
For `O=C(N/N=C/c1c[nH]c2ccc(Br)cc12)c1ccn(Cc2ccc(Cl)cc2Cl)n1`, the Potency was active: 28.2 µM.
With `CCn1c(C(=O)N2CCC(C(=O)NCCCSC3CCCCC3)CC2)cc2sccc21` the Potency was inconclusive: 25.1 µM [activator, single point].
For `C=CCOC(=O)C1=C[C@H](c2csc3ccccc23)C[C@H](OCCCCO)O1`, the Potency was inconclusive: 35.5 µM [activator, single point].
With `Cc1ccc2c(c1)C(=O)C(=O)N2CCCOc1ccccc1` the “growth rescue (activation)” value was inactive: -15.8%.
For `CC1Cc2ccccc2N1C(=O)CSc1nnc2n1C(C)(C)Cc1ccccc1-2` (centres undefined), the Potency was inconclusive: 7.94 µM [activator, partial curve, poor fit].
For `COc1ccc(-n2c(-c3ccc(C)cc3)cc3c2CC(C)(C)CC3=O)c(OC)c1`, the Potency was inconclusive: 25.1 µM [activator, single point].
In the case of `COC(=O)[C@]12C[C@H](CC(=O)NCCCCc3ccccc3)C(=O)N(CCC3=CCCCC3)C1=C[C@H](C(C)C)O[C@@H]2C1CC1`, the Potency is reported as inconclusive: 14.1 µM [activator, partial curve].
In the case of `COc1ccc(CCNC(=O)c2ccc3c(c2)N(Cc2ccccc2F)C(=O)c2ccccc2S3=O)cc1OC` (centres undefined), the Potency is reported as inconclusive: 25.1 µM [activator, partial curve, poor fit].
In the case of `CCN(CC)S(=O)(=O)c1ccc(C(=O)NCCSc2c(-c3ccc(C)cc3)[nH]c3ccccc23)cc1`, the Potency is reported as inconclusive: 11.2 µM [activator, partial curve].
For `CCOC(=O)c1ccc(NS(=O)(=O)c2ccc(SC)cc2)cc1`, the Potency was inconclusive: 14.1 µM [activator, partial curve, poor fit].
For `COc1ccc2cc3cc(C(=O)N4CCN(Cc5ccc6c(c5)OCO6)CC4)oc3nc2c1`, the “growth rescue (activation)” value was inactive: 16.9%.
With `CCOC(=O)[C@]12CCCCC/C=C\1N(Cc1ccc(OC)cc1)C(=O)[C@H]2CC(=O)N1CCN(C(=O)c2ccco2)CC1` the Potency was inconclusive: 11.2 µM [activator, partial curve].
For `O=C(Nc1ccc2oc(-c3ccncc3)nc2c1)c1ccco1`, the Potency was inconclusive: 17.8 µM [activator, partial curve, poor fit].
In the case of `Cc1cc(SCC(=O)Nc2cccc(S(=O)(=O)N3CCOCC3)c2)nc2ccccc12`, the Potency is reported as inconclusive: 39.8 µM [activator, single point].
With `CCCCCCCCCC[N+](C)(C)CC/C=C1/c2ccccc2Sc2ccc(Cl)cc21` the Potency was inconclusive: 35.5 µM [activator, single point].
With `CCN(CC)c1nc2c(S(=O)(=O)c3cccc(Cl)c3)nnn2c2ccsc12` the Potency was inconclusive: 50.1 µM [activator, single point].
In the case of `CCn1cc(C(=O)NCc2ccc(C)cc2)c(=O)c2cc(S(=O)(=O)N(C)C3CCCCC3)ccc21`, the Potency is reported as inconclusive: 28.2 µM [activator, single point].
For `N#Cc1nc(-c2cccs2)oc1N1CCN(c2ccccc2)CC1`, the Potency was inconclusive: 22.4 µM [activator, partial curve, poor fit].
In the case of `Cc1ccccc1CSCC(=O)Nc1ccccc1Br`, the Potency is reported as inconclusive: 12.6 µM [activator, partial curve].
In the case of `COc1ccc(C(=O)c2c(N)sc3c2CCN(C(=O)OC(C)(C)C)C3)cc1`, the Potency is reported as inconclusive: 50.1 µM [activator, single point].
In the case of `O=C(Nc1ccc(Cl)cc1)C1Cc2c(-c3ccc(Cl)cc3)ccnc2O1` (centres undefined), the “growth rescue (activation)” value is reported as inactive: 8.65%.
With `Cc1ccc(CSc2nnc(-c3ccccn3)n2Cc2cccs2)cc1` the Potency was inconclusive: 50.1 µM [activator, single point].
With `CN(Cc1c(C(=O)N/N=C/c2c(F)cccc2Cl)nnn1-c1nonc1N)c1ccccc1` the Potency was inconclusive: 35.5 µM [activator, single point].
For `CC12CN3CC(C)(CN(C1)C3c1ccccc1Cl)C2O` (centres undefined), the Potency was inconclusive: 1.12 µM [activator, full curve, poor fit].
For `CC(C)Oc1ccccc1C1Nc2ccccc2C(=O)N1c1ccc2c(c1)OCCO2` (centres undefined), the Potency was inconclusive: 50.1 µM [activator, single point].
For `CCOc1ccc(CCNC(=O)c2nnn(CC(=O)Nc3ccc(OC)c(OC)c3)c2N)cc1OCC`, the Potency was inconclusive: 17.8 µM [activator, partial curve, poor fit].
In the case of `O=C(Nc1cc(Cl)cc(Cl)c1)c1ccc(F)c(S(=O)(=O)NC2CCCCC2)c1`, the “growth rescue (activation)” value is reported as inactive: -15.3%.
For `CCOC(=O)[C@@]12CCC3=C1N(CCC3)C(=O)[C@H](CC(=O)N1CCN(C(=O)C3CC3)CC1)C2`, the “growth rescue (activation)” value was inactive: -1.31%.
With `CCCCc1ccc(NC(=O)CSc2nc3ccccc3nc2N2CCOCC2)cc1` the “growth rescue (activation)” value was inactive: -1.49%.
In the case of `CCC(CO)Oc1cc(NCc2cccc(Cl)c2)c2ncn(C(C)C)c2c1` (centres undefined), the Potency is reported as inconclusive: 25.1 µM [activator, partial curve].
For `Cc1nc(C)c(-c2ccc(SCc3ccc(Cl)cc3)nn2)s1`, the Potency was inconclusive: 44.7 µM [activator, partial curve, poor fit].
With `COc1ccccc1NS(=O)(=O)c1cc(NC(=O)c2cnccn2)ccc1N1CCOCC1` the Potency was inconclusive: 12.6 µM [activator, partial curve, poor fit].
For `Cc1ccc2nc(N3CCN(c4cccc(C)c4C)CC3)c3nncn3c2c1`, the “growth rescue (activation)” value was inactive: -0.147%.
With `O=[N+]([O-])c1cccc(C(=S)N2CCN(c3ccc(F)cc3)CC2)c1` the Potency was inconclusive: 22.4 µM [activator, single point].
